# Several values for one entry are separate records, joined by “and”; a condition that tells them apart may be missing. Equal values may be shown once. The list shows a part of the results. Further columns of the screen follow, without active or inactive calls. Most of these compounds were active or inconclusive in the main read-out, so they are no random draw. For some assays here: The note in brackets gives the kind of curve behind each potency; many fits are weak.
# Key:
# [1] = biological target: Histamine N-methyltransferase (Homo sapiens) (UniProt P50135); assay: Confirmatory Screen for Target Class Profiling of Small Molecule Inhibitors of Methyltransferases (AID 1745852); conditions: MTase-Glo luminescence, SAH detection, recombinant enzyme; measured here: HNMT inhibition potency;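 note: inhibitor potency for blocking SAH production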
# [2] = biological target: Catechol O-methyltransferase (Homo sapiens) (UniProt P21964); assay: as above; conditions: MTase-Glo luminescence, SAH detection, recombinant enzyme; measured here: COMT inhibition potency
# [3] = biological target: Phenylethanolamine N-methyltransferase (Homo sapiens) (UniProt P11086); assay: as above; conditions: MTase-Glo luminescence, SAH detection, recombinant enzyme; measured here: PNMT inhibition potency
# [4] = qHTS Assay for Modulators of Human Peripheral Myelin Protein 22 (PMP22) Expression/Activity (AID 1967); conditions: Cell-based PMP22 reporter, dual-color luciferase ratio
# How it was run: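 Engineered MSC80 cells, Pmp22-promoter green and EF-alpha red luciferase reporters; 24h compound treatment at 37 °C. Concentration-response fits on green, red and ratio signals, each overlap-corrected, with %Activity normalized to untreated wells.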
# [5] = biological target: Nicotinamide N-methyltransferase (Homo sapiens) (UniProt P40261); assay: Confirmatory Screen for Target Class Profiling of Small Molecule Inhibitors of Methyltransferases (AID 1745852); conditions: MTase-Glo luminescence, SAH detection, recombinant enzyme; measured here: NNMT inhibition potency;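 note: inhibitor potency for blocking SAH production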
# [6] = qHTS assay for small molecule agonists of retinoid X receptor alpha signaling (AID 588544); conditions: HEK293T RXRa-UAS-bla, beta-lactamase reporter, 18 h; 530 nm emission
# [7] = qHTS assay for small molecule antagonists of retinoid X receptor alpha signaling (AID 588546); conditions: HEK293T RXRa-UAS-bla, beta-lactamase ratio, antagonist mode; measured here: W530 green channel, cytotoxicity proxy;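 note: cells stimulated with 9-cis-retinoic acid as agonist; % is set by controls: 0 for no effect and ±100 for the full control effect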
# How it was run: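 Beta-lactamase reporter inhibition, read as CCF4 fluorescence ratio (ex 405, em 460/530 nm) after 2 h at RT. HEK293T UAS-bla cells, 2500/well, were stimulated with 9-cis-RA at 500 or 100 nM final alongside test compound for 18 h at 37 C.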
# [8] = A High-Content qHTS Against Drug Library for the Identification of Small Molecules that Inhibit DYT1 Early Onset Primary Dystonia-Associated Cell Pathology (AID 1645839); conditions: HEK293 Flp-In EGFP-delE TorsinA, punctate imaging, 48 h; measured here: cell count cytotoxicity
# How it was run: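 Flp-In T-REx 293 cells with tetracycline-inducible EGFP-delE hTOR1A (WT EGFP-hTOR1A as reference), 800 cells/well; compound added with tetracycline, 48 h at 37 C. Fixed, permeabilized cells imaged; %pathology (punctate TorsinA) primary, cell count counterscreen.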
# [9] = qHTS Assay for Inhibitors of PDE-IV (AID 607); conditions: HEK293 ACTOne CNG channel cells, membrane potential fluorescence; measured here: parental cell counter-screen;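 note: parental cells stimulated with forskolin 10 µM plus RO 20-1724 100 µM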
# How it was run: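 Cell-based read-out of cAMP via a modified cyclic nucleotide-gated channel and membrane potential dye (535/590 nm) in HEK293 cells expressing PDE4 endogenously. Compounds tested up to 22.9 uM final; 100 uM RO 20-1724 reference.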
# [10] = S16 Schwann cell PMP22 intronic element beta-lactamase assay (AID 624044); conditions: S16 rat Schwann cells, PMP22 element beta-lactamase FRET, 24 h; measured here: 460 nm blue channel; note: nearly all actives have a fitted effect of over 15% in size
# How it was run: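 Rat S16 Schwann cells with beta-Lac driven by a PMP22 intronic element, compound-treated 24 h at 37 °C. LiveBLAzer FRET B/G read: 460 nm normalized to potassium clavulanate vs DMSO; 535 nm FRET as viability; concentration-effect curves classified.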
# [11] = qHTS for identification of novel therapeutic agents for treatment of microphthalmiaassociated transcription factor (MiT) renal cell carcinoma (RCC) (AID 1963991); conditions: CellTiter-Glo, 48 h; for z-score: stronger effect = lower value
# How it was run: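 Curves over 11 concentrations were fitted to CellTiter-Glo luminescence, scaled between empty wells (0%) and DMSO (100%) viability. Cells were UOK109, UOK124 and UOK145 TFE3-fusion RCC lines at 500/well, exposed 48 hours at 37 C.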
# Tags give direction and shape of the fitted curve.
# Chain of UniProt P11086 (P11086 whole entry, looked up): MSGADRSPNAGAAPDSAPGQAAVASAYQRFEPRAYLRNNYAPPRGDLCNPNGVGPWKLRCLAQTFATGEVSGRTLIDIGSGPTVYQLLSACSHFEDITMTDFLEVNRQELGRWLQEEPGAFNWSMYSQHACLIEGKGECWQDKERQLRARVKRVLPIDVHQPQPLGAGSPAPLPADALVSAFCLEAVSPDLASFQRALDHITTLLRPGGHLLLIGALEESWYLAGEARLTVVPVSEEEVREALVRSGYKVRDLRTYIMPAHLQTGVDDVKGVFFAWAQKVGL
# Chain of UniProt P21964 (P21964 whole entry, looked up): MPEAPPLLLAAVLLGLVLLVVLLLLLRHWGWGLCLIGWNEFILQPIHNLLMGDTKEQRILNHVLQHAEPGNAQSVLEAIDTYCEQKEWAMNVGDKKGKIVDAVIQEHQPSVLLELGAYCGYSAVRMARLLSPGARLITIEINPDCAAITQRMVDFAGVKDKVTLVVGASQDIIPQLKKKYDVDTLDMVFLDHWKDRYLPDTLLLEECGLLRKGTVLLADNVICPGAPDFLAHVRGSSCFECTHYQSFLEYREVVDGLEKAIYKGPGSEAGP
# Chain of UniProt P50135 (P50135 whole entry, looked up): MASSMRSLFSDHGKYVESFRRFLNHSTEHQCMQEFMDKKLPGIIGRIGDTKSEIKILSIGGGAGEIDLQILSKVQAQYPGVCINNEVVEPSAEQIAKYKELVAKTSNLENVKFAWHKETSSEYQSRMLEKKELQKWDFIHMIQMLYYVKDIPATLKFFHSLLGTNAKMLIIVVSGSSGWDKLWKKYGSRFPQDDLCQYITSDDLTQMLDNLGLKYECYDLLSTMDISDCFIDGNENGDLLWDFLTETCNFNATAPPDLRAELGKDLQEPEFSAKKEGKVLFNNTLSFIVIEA
# Chain of UniProt P40261 (P40261 whole entry, looked up): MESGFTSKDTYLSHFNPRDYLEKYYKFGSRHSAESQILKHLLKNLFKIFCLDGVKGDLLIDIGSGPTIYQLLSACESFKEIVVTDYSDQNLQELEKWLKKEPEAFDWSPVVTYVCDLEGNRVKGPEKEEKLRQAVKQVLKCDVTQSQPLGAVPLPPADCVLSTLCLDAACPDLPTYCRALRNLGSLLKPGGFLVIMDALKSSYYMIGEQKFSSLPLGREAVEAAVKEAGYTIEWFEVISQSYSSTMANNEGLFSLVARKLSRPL
structure (smiles),measurement,setting,value
CCOC(=O)c1ccnc2cc(C(OCCN3CCCCC3)c3ccccc3Cl)sc12 (centres undefined),IC50,[1],"24.3 µM [falling, single point]"
CC1Oc2cc3c(-c4c(O)cc(O)c5c(O)c6c(cc45)OC(C)C(C)C6=O)c(O)cc(O)c3c(O)c2C(=O)C1C (centres undefined),IC50,[2],"21.5 µM [falling, partial curve]"
same,IC50,[1],"15.2 µM [falling, partial curve]"
same,IC50,[3],"21.5 µM [falling, partial curve]"
NCC(O)c1cc(O)c(O)cc1F (centres undefined),AC50,"[4]; measured here: green reporter channel AC50, mouse Pmp22 promoter in mouse Schwann cells","84.9 µM [falling, single point]"
same,IC50,[2],"7.69 µM [rising, partial curve]"
same,IC50,[3],"3.43 µM [rising, full curve]"
C[C@H]1CCC[C@H](O)CCC/C=C/c2cc(O)cc(O)c2C(=O)O1,IC50,[2],"2.41 µM [falling, full curve]"
same,IC50,[1],"1.92 µM [falling, full curve]"
same,IC50,[5],"3.83 µM [falling, full curve]"
same,IC50,[3],"3.04 µM [falling, full curve]"
Oc1cccc2cccnc12,max response,[6],22.5% and 17.9%
same,max response,[7],0.493%
same,AC50,[8],"12.6 µM [falling, full curve, poor fit]"
C=C(CO)C(=O)O[C@H]1CC(=C)[C@@H]2C[C@H](O)C(=C)[C@@H]2[C@H]2OC(=O)C(=C)[C@@H]21,IC50,[2],"5.95 µM [falling, partial curve]"
CCCN1CCc2cc(O)cc3c2[C@H]1Cc1ccc(O)c(O)c1-3,IC50,[1],"21.7 µM [falling, partial curve, poor fit]"
CC(C)OC(=O)c1ccnc2cc(C(OCCN3CCCCC3)c3ccccc3Cl)sc12 (centres undefined),IC50,[1],"24.3 µM [falling, partial curve, poor fit]"
CCCN(CCC)CCc1ccc(O)c(O)c1,AC50,"[4]; measured here: red reporter channel AC50, EF-alpha promoter control reporter in MSC80 mouse Schwann cells","75.7 µM [falling, partial curve]"
same,IC50,[2],"7.69 µM [rising, partial curve]"
CC[C@H]1CN2CC[C@H]1C[C@@H]2CNCc1ccc(-c2ccccc2)cc1,IC50,[1],"35 µM [falling, partial curve]"
Cc1[nH]c2ccc(Cl)cc2c1CCN(C)C,IC50,[1],"19.2 µM [falling, partial curve]"
COc1ccc(-c2cc3c(cn2)CN(C)CCN3)cn1,IC50,[1],"44.1 µM [falling, partial curve]"
N#Cc1ccc(N2CCN(C(=O)COc3ccc4[nH]cc(CCN)c4c3)CC2)cc1,IC50,[1],"0.429 µM [falling, full curve]"
CCCN1CCC[C@@H](c2cccc(O)c2)C1,IC50,[1],"19.3 µM [falling, partial curve]"
CN1CCc2cc(O)cc3c2[C@H]1Cc1ccc(O)c(O)c1-3,IC50,[2],"2.43 µM [falling, full curve]"
C[C@H](N)[C@H](O)c1ccc(O)c(O)c1,AC50,[9],"12.6 µM [rising, partial curve, poor fit]"
same,AC50,[8],"35.5 µM [rising, single point]"
Oc1ccc2c(c1)C13CCCC[C@H]1[C@@H](C2)N(CC1CCC1)CC3,IC50,[1],"21.5 µM [falling, partial curve]"
N#C/C(=C/c1ccc(O)c(O)c1)C(N)=S,IC50,[2],"1.37 µM [rising, full curve]"
CC(=O)NC[C@H]1C[C@@H]2CCN1C[C@@H]2c1cc(-c2ccc3ccccc3c2)nn1C,IC50,[1],"12.4 µM [falling, partial curve]"
Cc1cc(O)ccc1Cl,AC50,[10],"0.0631 µM [falling, full curve, poor fit]"
same,AC50,[8],"12.6 µM [falling, partial curve, poor fit]"
CCCN1CC[C@@H]2c3cc(O)ccc3CC[C@@H]21,IC50,[1],"13.7 µM [falling, partial curve]"
CN(CCc1ccccn1)C[C@H]1CN2CC[C@H]1C[C@@H]2CNC(=O)Nc1ccsc1,IC50,[1],"31.2 µM [falling, partial curve]"
Cc1[nH]nc2ccc(-c3cncc(OC[C@@H](N)Cc4c[nH]c5ccccc45)c3)cc12,IC50,[2],"24.1 µM [falling, partial curve]"
same,IC50,[1],"15.2 µM [falling, partial curve]"
same,IC50,[5],"21.5 µM [falling, partial curve]"
same,IC50,[3],"19.2 µM [falling, partial curve]"
same,z-score,"[11]; TFE3-RCC UOK109 viability, measured here: UOK109 Z-AUC",0.00898
same,z-score,"[11]; TFE3-RCC viability, measured here: UOK124 Z-AUC",0.134
same,AC50,"[11]; TFE3-RCC viability, measured here: UOK124 cell viability","2.35 µM [falling, partial curve]"
same,z-score,"[11]; TFE3-RCC viability, measured here: UOK145 Z-AUC",-0.932
same,AC50,"[11]; TFE3-RCC viability, measured here: UOK145 cell viability","0.935 µM [falling, full curve]"
CCCCN1[C@@H]2CC[C@H]1CC(OC(c1ccc(F)cc1)c1ccc(F)cc1)C2 (some centres undefined),IC50,[1],"19.2 µM [falling, partial curve]"

# Source: PubChem BioAssay (NCATS)
